{"source": "the supplement of paper PMC3334620", "note": "The full ranking holds about 33,000 sequences; the median of “E-score (-0.5 to 0.5)” is about -0.01, and the highest 2% start at about 0.26. Some of the results follow.", "data": [{"biological_target": "Ste12 (UniProt P13574)", "assay": "PBM E-score (8-mer binding enrichment) (E-score (-0.5 to 0.5)); higher = stronger / more preferred TF binding; most listed sequences are background and not binding sites", "conditions": "protein concentration: 200 nM; construct: GST-DNA-binding domain", "procedure,_shortened": "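Universal all-10-mer Agilent arrays, fresh or stripped once, were converted to double-stranded form by primer extension. GST-tagged yeast transcription factors from PURExpress in vitro transcription/translation, full-length or DNA-binding domain only, were applied at about 100-200 nM and detected with fluorescent anti-GST. After masliner normalisation, the Universal PBM Analysis Suite scored each ungapped eight-base word together with its reverse complement by E-score.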", "values": [{"sequence": "CAAGGTTC", "PBM E-score": -0.211}, {"sequence": "GATCGTAA", "PBM E-score": -0.152}, {"sequence": "AAAAGATG", "PBM E-score": 0.127}, {"sequence": "CAGAACCA", "PBM E-score": -0.139}, {"sequence": "CCGAGATC", "PBM E-score": -0.0305}, {"sequence": "ATTACAGC", "PBM E-score": -0.159}, {"sequence": "AACGCGAT", "PBM E-score": 0.0153}, {"sequence": "ATTAGAAT", "PBM E-score": 0.156}, {"sequence": "CGCCAGAG", "PBM E-score": -0.123}, {"sequence": "CTGCAAAA", "PBM E-score": 0.0422}, {"sequence": "ACGCATTG", "PBM E-score": -0.19}, {"sequence": "CCCTTCCG", "PBM E-score": -0.0988}, {"sequence": "ATATATCC", "PBM E-score": 0.153}, {"sequence": "AGGTAGAT", "PBM E-score": -0.0117}, {"sequence": "ACCGCGGT", "PBM E-score": -0.112}, {"sequence": "GGGTGGAA", "PBM E-score": -0.0551}, {"sequence": "GGTCGTAC", "PBM E-score": -0.112}, {"sequence": "TATTAAAA", "PBM E-score": 0.341}, {"sequence": "GAAGACTC", "PBM E-score": -0.189}, {"sequence": "CATTAGGA", "PBM E-score": -0.00125}, {"sequence": "GTCCCGAC", "PBM E-score": 0.0737}, {"sequence": "ACCGACGA", "PBM E-score": 0.0741}, {"sequence": "GTGCTGAA", "PBM E-score": -0.0853}, {"sequence": "GGAAGTAC", "PBM E-score": 0.0207}, {"sequence": "CTATCCTC", "PBM E-score": -0.0976}, {"sequence": "ATATCGGC", "PBM E-score": -0.0848}, {"sequence": "TACCAGTA", "PBM E-score": -0.0789}, {"sequence": "TCAGCGGA", "PBM E-score": 0.0108}, {"sequence": "GTGTGGGA", "PBM E-score": 0.122}, {"sequence": "CATTCATC", "PBM E-score": 0.125}, {"sequence": "CGAAAACG", "PBM E-score": 0.0906}, {"sequence": "CGTCAAAG", "PBM E-score": -0.00679}, {"sequence": "CCTTATAA", "PBM E-score": 0.204}, {"sequence": "AATATGTG", "PBM E-score": 0.217}, {"sequence": "CACAGTCA", "PBM E-score": -0.168}, {"sequence": "ACGTACCC", "PBM E-score": -0.0623}, {"sequence": "CGTTTCAG", "PBM E-score": 0.482}, {"sequence": "AGCATGAG", "PBM E-score": -0.0759}, {"sequence": "CATTTACC", "PBM E-score": 0.127}, {"sequence": "ACAGTACC", "PBM E-score": -0.13}, {"sequence": "ACAACTCG", "PBM E-score": 0.0864}, {"sequence": "ATCGAACC", "PBM E-score": 0.0183}, {"sequence": "AGGATTAT", "PBM E-score": -0.0429}, {"sequence": "CCAAAAGC", "PBM E-score": 0.0544}, {"sequence": "CAGGCATC", "PBM E-score": -0.0695}, {"sequence": "AGCATACC", "PBM E-score": -0.0534}, {"sequence": "AATGATCT", "PBM E-score": 0.0489}, {"sequence": "GCCTTATA", "PBM E-score": 0.0261}, {"sequence": "CGGATGGA", "PBM E-score": -0.0501}, {"sequence": "AGCTCTGA", "PBM E-score": -0.166}, {"sequence": "AATAGCAT", "PBM E-score": -0.0503}, {"sequence": "AAAGAAAG", "PBM E-score": 0.19}, {"sequence": "AGCGACCT", "PBM E-score": 0.0126}, {"sequence": "GCTAGTCC", "PBM E-score": -0.139}, {"sequence": "AATTCTCA", "PBM E-score": 0.126}, {"sequence": "AGACGACC", "PBM E-score": -0.133}, {"sequence": "AGGTGGAG", "PBM E-score": -0.18}, {"sequence": "CGATGCGA", "PBM E-score": -0.0673}, {"sequence": "GAAACAAA", "PBM E-score": 0.345}, {"sequence": "CTAGCTAG", "PBM E-score": -0.23}, {"sequence": "ACTTTCGC", "PBM E-score": 0.0806}, {"sequence": "AACCAGGT", "PBM E-score": -0.00549}, {"sequence": "AGGGCCGC", "PBM E-score": -0.386}, {"sequence": "GAAGTTCA", "PBM E-score": 0.0529}, {"sequence": "AACCGCGC", "PBM E-score": 0.0907}, {"sequence": "CGAGTATC", "PBM E-score": -0.081}, {"sequence": "ACAGGGGG", "PBM E-score": -0.0966}, {"sequence": "AAATGGAT", "PBM E-score": 0.0735}, {"sequence": "ATCCCGGA", "PBM E-score": 0.043}, {"sequence": "CAACCAGC", "PBM E-score": -0.171}, {"sequence": "GCGCCAGC", "PBM E-score": -0.301}, {"sequence": "ACGAGCGG", "PBM E-score": -0.108}, {"sequence": "GTACGGAC", "PBM E-score": -0.141}, {"sequence": "GAATTACC", "PBM E-score": 0.0501}, {"sequence": "GGCTGCCC", "PBM E-score": -0.177}, {"sequence": "GGCTGATA", "PBM E-score": 0.126}, {"sequence": "AGGAGCGC", "PBM E-score": -0.0491}, {"sequence": "ATCGTGGC", "PBM E-score": -0.129}, {"sequence": "TGCAAAAA", "PBM E-score": 0.118}, {"sequence": "GGGGATTA", "PBM E-score": 0.0663}, {"sequence": "ATTTCTCG", "PBM E-score": 0.195}, {"sequence": "CCGGTTGA", "PBM E-score": -0.0577}, {"sequence": "CTCAGCTA", "PBM E-score": -0.163}, {"sequence": "AGAAACTA", "PBM E-score": 0.0653}, {"sequence": "AGGAACAT", "PBM E-score": -0.202}, {"sequence": "TATGAGAA", "PBM E-score": 0.0646}]}]}
